Reference: PubChem BioAssay AID1963576 (National Center for Advancing Translational Sciences (NCATS), 2024)
Hit rate of the full screen: of about 46,000 compounds, about 60 (0.1%) were called active. Inconclusive results (about 3%) are left out. The call rests on the fitted dose curve; in most records, active means well fitted inhibition curve with a large enough effect; inconclusive means small, poorly fitted or top-dose-only effect; inactive means no such curve, though single readings can be large or run the other way. The list shows a part of the results.

assay: Primary qHTS assay for Inhibitors of ovarian cancer metastasis using an organotypic tumor microenvironment (TME) model.; further: nearly all actives have a fitted effect of over 65% in size;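 on activity change, negative = inhibition: plate controls were DMSO wells for no effect and tomatine positive control wells for full effect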; settings: SKOV3ip1-GFP adhesion/invasion on 3D omental model, fluorescence; series mostly up to 45.8 µM; activity change, negative = inhibition: at the top concentration
Outline: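 qHTS, 4-pt dose (0.36-46 umol/L); SKOV3ip1-GFP, 1,200 cells/well, no FBS; primary omental fibroblast/mesothelial co-culture 48 h pre-grown; 2 h RT + 16 h 37 C; PBS wash, 4% PFA; GFP count 488/509 nm.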

Activity change, negative = inhibition, inactive:
COc1cccc(C(=O)Nc2ccccc2-c2nc(-c3ccc(C)cc3)no2)c1 -7.32%, CCc1ccccc1NC(=O)CC(C)n1nc(C)cc1C (centres undefined) 11.1%, O=c1c2cc3c(cc2n(Cc2cccc(F)c2)c(=O)n1Cc1nc(-c2ccccc2)no1)OCO3 -1.67%, c1ccc(N2CCN(c3ncnc4[nH]ncc34)CC2)cc1 -11.3%, CC(=O)c1cccc(NC(=O)c2sc3nc4c(cc3c2N)CCCC4)c1 -6.24%, COc1cc(OC)c(NC(=O)NCc2ccc3c(c2)CCN3C(C)=O)cc1Cl 0.761%, CCc1ccccc1N1C(=O)N(Cc2cccc(Cl)c2)c2ccccc2S1(=O)=O 2.47%, CCCNS(=O)(=O)c1cc(-c2nnc3c4ccccc4c(C)nn23)ccc1OC -2.59%, Cc1cccn2c(=O)c(C(=O)NCCc3ccc(Cl)cc3)cnc12 -11.1%, CC(=O)c1ccc(NC(=O)C2CCC(CNS(=O)(=O)c3cccc4nsnc34)CC2)cc1 (centres undefined) -0.253%, COCCN1C(=O)c2[nH]nc(-c3c(C)cc(C)cc3O)c2C1c1cccc(O)c1 (centres undefined) 6.53%, CCOc1ccc(NC(=O)C2CCCN(c3nnc(-n4c(C)ccc4C)s3)C2)cc1 (centres undefined) -0.146%, Cc1ccc(Cl)cc1NC(=O)c1cccc(NC(=O)N2CCSc3ncccc32)c1 6.3%, Cc1ccc(C(=O)NCc2nnnn2-c2ccc(C)c(C)c2)cc1 -20.4%, Cc1cccc(NC(=O)c2sc3nc4c(cc3c2N)CN(Cc2ccccc2)CC4)c1 -19.5%, CCOc1ccccc1NC(=O)C(C)Sc1nc(-c2ccccc2)c(C#N)c(=O)[nH]1 (centres undefined) 14%, COc1ccccc1NC(=O)c1oc2ccccc2c1NC(=O)c1ccccc1C(F)(F)F -20.6%, CCCCOc1ccc(C(=O)NCCc2sc(-c3cccc(F)c3)nc2C)cc1 2.3%, Cc1ccc(C)c(Cn2c(=O)n(Cc3ccc4c(c3)OCO4)c(=O)c3oc4ccccc4c32)c1 17.8%, O=C(Nc1ccc(NC(=O)c2cccs2)cc1)c1cccc(Br)c1 10.3%, Cc1cc2nc(-c3ccc(OCc4ccc(F)cc4)cc3)cc(C(F)(F)F)n2n1 -14.1%, COC(=O)c1ccc(NC(=O)CC2C(=O)N(c3ccc(F)cc3)C(=O)N2Cc2ccc(OC)cc2)cc1 (centres undefined) 11.5%, CCOc1ccc(/C=C/c2nc(C#N)c(NC(C)CC)o2)cc1 (centres undefined) -2.64%, Cc1nc2sc(C(=O)Nc3ccc(F)cc3)c(N)c2c(-c2ccc(Br)cc2)c1C(=O)Nc1ccc(Cl)cc1 10%, CCc1cccc(NC(=O)c2cnc(SC)nc2-c2ccccc2)c1 7.11%, O=C(Cn1ncc2c3ccccc3n(Cc3ccc(Cl)cc3)c2c1=O)NCc1cccs1 7.75%, COc1ccc(N2CCN(S(=O)(=O)c3ccc(OC)c(-c4noc(C)n4)c3)CC2)cc1 -15.1%, CCOc1ccc(Sc2cc(C(=O)NC(C)CC)c3ccccc3n2)cc1 (centres undefined) -21.6%, COc1ccc(-c2cn3nc(N4CCC(C(=O)Nc5cccc(OC)c5)CC4)sc3n2)cc1 4.44%, Cc1ccc(C2CC(=O)N(Cc3ccccc3)c3c2c(C)nn3-c2nc(C)cc(C)n2)cc1 (centres undefined) -1.48%, CCc1ccc(NC(=O)CSc2nccn2-c2cccc(C)c2C)cc1 -20.4%, O=C(C1CCCN(S(=O)(=O)c2ccc(Br)s2)C1)N1CCN(c2ccc(F)cc2)CC1 (centres undefined) -4.03%, O=c1cc(-c2ccc(F)cc2)nc(SCc2nc(-c3cccc(Cl)c3)no2)[nH]1 8.76%, Cc1cc(NC(=O)CSc2nc3c([nH]c4ccccc43)c(=O)n2-c2ccccc2)no1 -6.26%, Cc1ccc(Cl)cc1-n1ncc2c(NCCCn3ccnc3)ncnc21 9.85%, Cc1ccc2c(=O)cc(C(=O)Nc3sc4c(c3C(N)=O)CCCC4)oc2c1 -16.3%, O=C(C1CCN(S(=O)(=O)Cc2ccccc2)CC1)N1CCN(c2ccc(F)cc2)CC1 -7.42%, Cc1ccc(C)n1-c1c(C(=O)NCCCN2CCN(c3ccc(F)cc3)CC2)sc2ncccc12 -17.7%, CCOC(=O)c1cc(C)n(CC2CCC(C(=O)Nc3ccc(OCC)cc3)CC2)c1C (centres undefined) -0.719%, Cc1ccc2oc(-c3cc(NC(=O)c4ccc5c(c4)OCCO5)cc(C)c3O)nc2c1 32.5%, CC1=C(C(=O)OCC(C)C)C(c2ccc(OCc3ccccc3)cc2)N2C(=O)CCSC2=N1 (centres undefined) 1.25%, Cc1ccc(-n2nc(C(=O)Nc3ccc(Cl)cn3)c3c4ccccc4n(C)c3c2=O)cc1 -3.15%, Cc1ccccc1OCc1ccc(-c2nc(C#N)c(N3CCN(C)CC3)o2)o1 -29.9%, Cc1ccc(Cl)cc1N1CCN(C(=O)c2cccn3c(=O)c4cc(Cl)ccc4nc23)CC1 -0.729%, COc1ccc(NC(=O)CCn2nc(-c3ccccc3OC)c3c(C)cc(C)nc32)cc1 -13.1%, COc1cc(CN(C(=O)c2cccc(Cl)c2)c2ccccn2)cc(OC)c1OC -0.138%, CCC(C(=O)N1CCN(c2ccccc2F)CC1)n1nc(C)c2sc3ccccc3c2c1=O (centres undefined) 2.81%, CCN(CC)C(=O)Cn1c(SCCOc2ccc(Cl)cc2)nc2ccccc21 4.46%, CCCCN(C)C(=O)C1CCC(CNS(=O)(=O)c2ccc3c(c2)CC(C)N3C(C)=O)CC1 (centres undefined) -10.6%, COc1ccc(NC(=O)CSc2nc(-c3ccco3)cc(C(F)(F)F)n2)c(OC)c1 -2.83%, COc1ccc(NC(=O)c2ccc(CNS(=O)(=O)c3ccc4c(c3)C(C)(C)C(=O)N4C)cc2)cc1 -28.7%, CC(=O)N1c2ccccc2C(=O)C1N1CCN(c2ccc(F)cc2)CC1 (centres undefined) -1.09%, O=C1CC(c2nc(-c3cccc(Cl)c3)no2)CN1c1ccc2c(c1)OCCO2 (centres undefined) 9.95%, Cc1ccc(Cl)cc1NCc1nnc2n1CCCCC2 2.75%, CC(O)(C#Cc1ccc2c(c1)N(c1nc(N)ncc1Cl)CC2)c1nccs1 (centres undefined) 15.9%, CC(C)OCCCNC(=O)CN1C(=O)CSc2ccc(S(=O)(=O)N3CCCCC3)cc21 1.91%, Cc1c(C)n(Cc2ccccc2)c2ccc(C(=O)NCCc3ccccc3Cl)cc12 5.53%, COc1cccc(CNC(=O)C2CCCN(c3ncnc4onc(-c5ccc(F)cc5)c34)C2)c1 (centres undefined) 6.74%, CC(C)Oc1ccc(CNC(=O)CCn2c(=O)c3cccn3c3ccc(F)cc32)cc1 21.6%, O=C(Nc1ccc2c(c1)N(C1CCCC1)C(=O)c1ccccc1S2)c1cccc(F)c1 4.44%, COc1cccc(-n2c(=O)c3c(C)c(C(=O)N(C)C)sc3n(CC(=O)Nc3ccc(C)cc3Cl)c2=O)c1 31.5%, CCN(C(=O)Cn1c(=O)oc2cc(S(=O)(=O)N3CCCC3)ccc21)c1cccc(C)c1 3.85%, CCOc1ccccc1CNC(=O)CCc1cn(Cc2ccc(Cl)cc2)c2ccccc12 0.741%, Cc1ccc(-n2nnnc2C2CCN(S(=O)(=O)c3ccc(OC(F)(F)F)cc3)CC2)cc1 7.27%, Cc1n[nH]c(C)c1S(=O)(=O)N(CC(=O)NCc1ccccc1Cl)c1ccc(C(C)C)cc1 -4.74%, COc1ccc(C(=O)Nc2ccc(OCc3cc(=O)n4ccccc4n3)cc2)cc1 -4.61%, N#C/C(=C\c1ccc(-c2ccc(F)cc2F)o1)c1nc2ccccc2[nH]1 -3.55%, COc1ccc(CNC(=O)c2ccc3[nH]c(C)c(C)c3c2)c(OC)c1 9.08%, COCCCNC(=O)CSc1nc2ccccc2c(=O)n1Cc1ccco1 -1.53%, CCOc1ccc(CCNC(=O)c2c(C)oc3ncnc(N4CCOCC4)c23)cc1 2.04%, Cc1cc(C)cc(NC(=O)CN(C)S(=O)(=O)c2ccc3[nH]c4c(c3c2)CCCC4)c1 -0.148%, COc1ccc(-c2onc(C)c2C)cc1S(=O)(=O)NCc1ccc(Br)cc1 0.993%, Cc1ccc(C)c(N2CCN(C(=O)CCS(=O)(=O)c3ccc4c(c3)CC(=O)N4C)CC2)c1 89.3%, CCc1nnc2c(NCCc3ccc(OC)c(OC)c3)nc3ccccc3n12 -4.47%, CCc1ccc(NC(=O)CC2C(=O)N(c3ccc(Cl)cc3)C(=O)N2Cc2cccs2)cc1 (centres undefined) -7.88%, Cc1ccc(S(=O)(=O)NCC2CCC(C(=O)N(C)Cc3ccccc3)CC2)cc1 (centres undefined) 17.5%, CC(Oc1ccc(F)cc1)C(=O)Nc1cc(-c2ccc(F)c(F)c2)no1 (centres undefined) 10.3%, COc1ccc(-c2nnc(SCC(=O)Nc3ccc(C(C)=O)cc3)nc2-c2ccc(OC)cc2)cc1 -9.97%

outcome, inactive:
Cc1ccc(N2C(=O)c3n[nH]c(C)c3C2c2ccc(C(C)C)cc2)cc1 (centres undefined), CC(C)(C)OC(=O)N1CCC(c2c(C(=O)N3CCN(C(=O)c4ccco4)CC3)cnn2-c2ccc(Cl)cc2)CC1, COc1ccc(S(=O)(=O)N(CCc2ccccc2)CC(=O)NCc2ccccc2)cc1OC, CCc1ccc(NCc2cc3ccc(OC)cc3n(CC(=O)Nc3cccc(Cl)c3C)c2=O)cc1, Cc1ccc(-c2nnc(Nc3ccc(Br)cc3)c3ccccc23)cc1S(=O)(=O)NCc1nc2ccccc2[nH]1, COc1ccc(NC(=O)CSc2nc3ccncc3[nH]2)c(OC)c1, CC1CN(C(=O)N2CCC(C(=O)NCCC3=CCCCC3)CC2)c2cc(Cl)ccc2O1 (centres undefined), CCc1ccc(NC(=O)c2ccc(F)c(S(=O)(=O)N(C)C3CCCCC3)c2)cc1, COc1cc(NC(=O)c2nc3ccccc3nc2C)cc(OC)c1OC, Cc1ccc(C)c(CN2C(=O)C3(c4ccccc42)N(c2cccc(C(F)(F)F)c2)C(=O)CS3(=O)=O)c1 (centres undefined), COc1ccc(C2C(=O)N(C3CCCCC3)CC(=O)N2CCc2ccc(OC)c(OC)c2)cc1 (centres undefined), O=C(CCS(=O)(=O)c1cc2c(cc1Cl)NC(=O)CO2)NCCc1ccc(Cl)cc1, CCCc1nn2c(=O)cc(COc3ccc(/C=C(\C#N)C(=O)Nc4ccc(F)cc4)cc3)nc2s1, O=C(NCCc1csc(-c2cccc(F)c2)n1)c1ccc(Br)o1, Cc1ccc(NC(=O)CN2C(=O)COc3ccc(S(=O)(=O)N4CCCCCC4)cc32)cc1C, Cc1ccc(OCC(=O)N(Cc2ccco2)C2CCS(=O)(=O)C2)cc1 (centres undefined)
